Hit rate of the full screen: of about 150,000 compounds, about 540 (0.36%) showed an effect of 50% or more. Some of the results follow.
These molecules were tested on Plasmodium falciparum (assay: Primary screen in NF54 nanoGlo assay, in single point, at 2uM, 72h; a lower Z score goes with more inhibition). Conditions: timepoint 72 hour.
Assay type: functional, Erythrocyte
`CCN(C[C@H](C)C#N)S(=O)(=O)c1c(F)c(F)cc(F)c1F` was tested, and the “% Inhibition” value was 7% and the Z score was -0.96. `CCCN1C[C@@H](NC(=O)c2cccc(-c3ccc4[nH]nc(N)c4c3)c2)CC1=O` was tested, and the “% Inhibition” value was -18% and the Z score was 2.68. For `CCN(CC)c1nc2cc(C(=O)NC3CCCC3)ccc2c(=O)n1Cc1ccccc1`, the “% Inhibition” value was -3% and the Z score was 0.6. For `CCOC(=O)c1cc(-c2cccc(NC(=O)c3ccc(C(=O)OC)cc3)c2)n(-c2cccc(C)c2)n1`, the “% Inhibition” value was 5% and the Z score was -0.65. In the case of `N#Cc1ccc(OC[C@@H](O)CN2CCC23CCOCC3)cc1`, the “% Inhibition” value was -8% and the Z score was 1.27. For `CC(C)C[C@H]1CC(=O)N(C(C)(C)C(=O)Nc2ccc3c(c2)OCO3)C1`, the “% Inhibition” value was -1% and the Z score was 0.08. `Cn1c(=O)c2c(ncn2Cc2cn(-c3ccc(F)c(Cl)c3)nn2)n(C)c1=O` was tested, and the “% Inhibition” value was -6% and the Z score was 0.71. `CC(C)c1nnc(CN2C(=O)C3CC3C2=O)s1` (stereo unspecified) was tested, and the “% Inhibition” value was -4% and the Z score was 0.65. `CN1C[C@@H]2CCC[C@H]1CN(C(=O)CCCc1cn[nH]c1)C2` was tested, and the “% Inhibition” value was -16% and the Z score was 2.38. With `O=C(Nc1nnc(-c2ccc(F)cc2F)o1)C1=COCCO1` the “% Inhibition” value was -10% and the Z score was 1.82. `O=C(N[C@H]1CC[C@H](Oc2ccccn2)CC1)c1ccc[nH]c1=O` was tested, and the “% Inhibition” value was -1% and the Z score was 0.18. `Cc1cccc2nc(CNC(=O)C3CCN(CC(F)F)CC3)n(C)c12` was tested, and the “% Inhibition” value was -12% and the Z score was 1.91. With `Cc1nc2ncccc2cc1Br` the “% Inhibition” value was 0% and the Z score was -0.07. With `CC1CN(CC(O)Cn2cccn2)CCN1C1CCCC1` (stereo unspecified) the “% Inhibition” value was -8% and the Z score was 1.14. In the case of `COCC(=O)N[C@H]1CCN2C(=O)c3ccccc3NC(=O)[C@@H]2C1`, the “% Inhibition” value was -8% and the Z score was 1.02. With `O=C([C@@H]1CCCc2[nH]ncc21)N1CC(c2cccc(Cl)c2)C1` the “% Inhibition” value was -3% and the Z score was 0.49. In the case of `O=C(CCc1ccc(OC(F)F)cc1)N1CCc2nc[nH]c(=O)c2C1`, the “% Inhibition” value was 0% and the Z score was 0.07. In the case of `O=S(=O)(c1cccnc1)N1CCC[C@]2(CC=CCC2)C1`, the “% Inhibition” value was -2% and the Z score was 0.21. In the case of `Cc1cccc(OC[C@]2(CNC(=O)c3cc(C)on3)C[C@@H](O)[C@@H](O)C2)n1`, the “% Inhibition” value was 11% and the Z score was -1.3. In the case of `CN(C)c1cc(C#N)cc(C(=O)NCc2cc(C(F)(F)F)[nH]n2)c1`, the “% Inhibition” value was -4% and the Z score was 0.57. In the case of `C[C@@H](c1cccs1)N(C)Cc1cc(CN2CCCC2)cs1`, the “% Inhibition” value was -12% and the Z score was 1.33. In the case of `CC/C=C/CC(=O)N1CCC2(CCN(Cc3cccnc3)CC2)[C@@H](CO)C1`, the “% Inhibition” value was -9% and the Z score was 1.58. In the case of `Cc1noc(C)c1CCC(=O)N[C@H]1CCCC[C@@H]1OCc1ccccc1`, the “% Inhibition” value was 5% and the Z score was -0.76. `O=C(c1cnn[nH]1)N1CCCN(Cc2ccncc2)CC1` was tested, and the “% Inhibition” value was -13% and the Z score was 2.31. For `O=C1NCCN2CCN(S(=O)(=O)c3ccccc3F)CC[C@@H]12`, the “% Inhibition” value was 2% and the Z score was -0.35. `CCc1ccccc1S(=O)(=O)N[C@H]1CCN(c2ccc(C)cc2)C1=O` was tested, and the “% Inhibition” value was 0% and the Z score was -0.05. In the case of `N#CC1(C#N)C(c2ccc(Cl)cc2)C1(C#N)C#N`, the “% Inhibition” value was 44% and the Z score was -1.55. For `Cc1sc(-c2nc(-c3cccc(F)c3)no2)cc1S(=O)(=O)N1CCN(c2ccccc2)CC1`, the “% Inhibition” value was -4% and the Z score was 0.5. In the case of `O=C(NCc1ccccn1)c1ccc(S(=O)(=O)N2CCCCCC2)cc1`, the “% Inhibition” value was -5% and the Z score was 0.67. For `O[C@@H](CNC1CCN(C2CCC2)CC1)c1cc(F)ccc1F`, the “% Inhibition” value was -11% and the Z score was 1.64. `Cc1noc(-c2csc(C(=O)NCCCN3CCCCC3)n2)n1` was tested, and the “% Inhibition” value was 2% and the Z score was -0.37. `COc1ccccc1CNC(=O)c1ccc2c(c1)N(C)C(=O)c1ccccc1O2` was tested, and the “% Inhibition” value was -4% and the Z score was 0.55. In the case of `Cc1cc(CN2CCc3ccccc3C2)on1`, the “% Inhibition” value was -3% and the Z score was 0.25. With `COC1CCC2OCCN(C(=O)N(C)c3ccc(F)cc3)C2C1` (stereo unspecified) the “% Inhibition” value was 1% and the Z score was -0.16. With `Cc1cnn(CC(=O)Nc2ncccc2CNC(=O)OC(C)(C)C)c1` the “% Inhibition” value was 17% and the Z score was -2.14. With `O=c1n(CCCc2nc(-c3ccccc3)no2)nc2ccccn12` the “% Inhibition” value was -2% and the Z score was 0.44. `CNC(=O)Cc1noc(-c2cnn(-c3ccccc3)n2)n1` was tested, and the “% Inhibition” value was 16% and the Z score was -1.85. `O=C(CCNC(=O)c1ccc(F)cc1)NCCN1CCCC1` was tested, and the “% Inhibition” value was 3% and the Z score was -0.39. In the case of `O=S(=O)(c1ccc(F)cc1)N1CC(F)(F)C[C@H]1CN1CCc2ccccc2C1`, the “% Inhibition” value was -15% and the Z score was 2.64. `CCOC1CC(NC(=O)C2(C#N)CCCC2)C1(C)C` (stereo unspecified) was tested, and the “% Inhibition” value was -5% and the Z score was 0.69. With `CCN1CCCN(C(=O)N[C@H]2CCC[C@H]2F)CC1=O` the “% Inhibition” value was -4% and the Z score was 0.77. `COc1cc(CN[C@H]2CCc3c(cccc3OC)C2)ccn1` was tested, and the “% Inhibition” value was -1% and the Z score was 0.12. For `CNC(=O)C(CC(C)C)NC(=O)[C@H](O)c1ccccc1` (stereo partly specified), the “% Inhibition” value was -3% and the Z score was 0.61.
